Among all 48,000 compounds or so, about 550 (1.1%) were called active. Another 4% or so got no clear call; they are omitted. No stated cut-off is given here; in the data, active means potency below about 15 µM; inconclusive means mostly about 16 µM to 33 µM; inactive means weaker than that. Some of the results follow.

Among the data in PubChem BioAssay AID360 (National Center for Advancing Translational Sciences (NCATS), 2006) are Potency values, retold here.
Potency means the concentration at half of the fitted maximal effect.

UniProt P04062, sequence (P04062 whole entry, looked up): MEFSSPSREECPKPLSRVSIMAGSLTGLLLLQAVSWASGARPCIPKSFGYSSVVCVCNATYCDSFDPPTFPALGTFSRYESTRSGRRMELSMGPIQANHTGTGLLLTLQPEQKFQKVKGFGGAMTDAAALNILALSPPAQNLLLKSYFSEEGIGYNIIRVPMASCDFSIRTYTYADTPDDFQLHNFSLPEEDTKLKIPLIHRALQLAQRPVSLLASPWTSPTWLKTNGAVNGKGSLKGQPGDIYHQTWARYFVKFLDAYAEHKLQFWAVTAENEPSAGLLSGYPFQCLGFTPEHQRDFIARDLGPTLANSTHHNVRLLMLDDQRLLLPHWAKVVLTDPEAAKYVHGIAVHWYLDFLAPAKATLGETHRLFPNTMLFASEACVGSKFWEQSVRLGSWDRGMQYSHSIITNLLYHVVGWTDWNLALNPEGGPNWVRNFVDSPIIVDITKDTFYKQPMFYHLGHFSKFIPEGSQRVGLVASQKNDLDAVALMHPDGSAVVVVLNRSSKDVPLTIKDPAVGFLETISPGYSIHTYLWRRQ

The assay deals with Lysosomal acid glucosylceramidase (Homo sapiens) (UniProt P04062). Description: Glucocerebrosidase.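 Further: the screen sought inhibitors.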 The following applies: purified enzyme, resorufin glucoside fluorescence (screen aimed at inhibitors), 20 min. Summed up:
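Normal human glucocerebrosidase (0.2 nM final) was assayed with resorufin β-D-glucopyranoside (30 uM final) in 50mM citric acid/KH2PO4, 10mM sodium taurocholate, 0.01% tween-20, pH 5.9. Compounds were titrated; fluorescence (Ex 548, Em 600) read after 20 min at RT.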
For `CCCn1nc(C(=O)N2CC(=O)Nc3ccccc32)c2ccccc2c1=O`, the Potency is inactive: > 76.9 µM.

With `c1ccc(-n2ncc3c2ncn2nc(-c4ccco4)nc32)cc1`, the Potency was inactive: > 76.9 µM.

On to `CN(C(=O)C1CCN(S(=O)(=O)c2cccs2)CC1)C1CCCCC1`, for which the Potency was active: 12.6 µM.

Regarding `CC1CC(C)(C)NC(=O)O1` (configuration not stated), the Potency was inactive: > 76.9 µM.

As to `O=C(CCCOc1ccccc1)N1CCN(C(=O)c2ccco2)CC1`, the Potency is inactive: > 76.9 µM.

For the compound `Cc1nc(N[C@@H](Cc2c[nH]c3ccccc23)C(=O)O)c2oc3ccccc3c2n1`, the Potency was inactive: > 76.9 µM.

As to `COc1ccc(CCn2c(N3CCN(C)CC3)nc3c2c(=O)[nH]c(=O)n3C)cc1`, the Potency is inactive: > 76.9 µM.

Regarding `Cn1c2ccccc2c2ncn(CCCN3CCOCC3)c(=O)c21`, the Potency is inactive: > 76.9 µM.

Consider `CCCCNC(=O)OCC(CC)NC(=O)OC(C)C` (configuration not stated), for which the Potency was inactive: > 76.9 µM.

Consider `c1ccc(-c2csc(N3CCN(c4ccccn4)CC3)n2)cc1`, for which the Potency is inactive: > 76.9 µM.

Regarding `O=C(NCCCN1CCN(c2cccc(Cl)c2)CC1)C1CCC(=O)N1Cc1ccccc1Cl` (configuration not stated), the Potency is inactive: > 76.9 µM.

Take `COc1ccc(OC)c(C(c2nnnn2C(C)(C)C)N2CCc3ccccc3C2)c1` (configuration not stated): the Potency result was “inactive”.

Regarding `Cc1ccc(N)cc1CN1CCCC1=O`, the Potency was inactive: > 76.9 µM.

Take `CCCCCCNC(=O)Cc1nc2nc(C)cc(C)n2n1`: the Potency was inactive: > 76.9 µM.

With `Cn1c(=O)c(=O)n(C)c2cc(S(=O)(=O)N3CCCCCC3)ccc21`, the Potency is inactive: > 76.9 µM.

As for `COc1cccc(C2c3c(oc4ccc(Cl)cc4c3=O)C(=O)N2c2cc(C)on2)c1OC` (configuration not stated), the Potency is inactive: > 76.9 µM.

For `Cc1ccc2[nH]c(=O)c(CN(Cc3ccco3)C(=O)c3ccncc3)cc2c1`, the Potency was inactive: > 76.9 µM.

In the case of `O=C(NCC(=O)N(Cc1ccc(F)cc1)C(C(=O)NC1CCCC1)c1ccco1)c1ccco1` (configuration not stated), the Potency was inactive: > 76.9 µM.

With `CC1(C)N([O-])C(c2ccccc2)=C[N+](=O)C1(C)C`, the Potency was inactive: > 76.9 µM.

Regarding `O=C(NC1CCCCCCC1)C1=COCCO1`, the Potency is inactive: > 76.9 µM.

In the case of `CC(NS(=O)(=O)c1ccc(CCC(=O)N2CCN(C)CC2)cc1)c1ccccc1` (configuration not stated), the Potency was inactive: > 76.9 µM.

Consider `CC1=CC(C)=Nc2ccc(C)cc2N1`, for which the Potency was inactive: > 76.9 µM.

Turning to `COc1ccc(CCNC(=O)c2ccc(CNc3c(N4CCOCC4)c(=O)c3=O)cc2)cc1OC`, the Potency is inactive: > 76.9 µM.

As to `COc1ccc(S(=O)(=O)N2CCC(C(=O)N3CCCCC3)CC2)cc1OC`, the Potency is inactive: > 76.9 µM.

As to `C/C(N)=C(/C#N)C(=O)CSc1nnc(SCc2ccc(Cl)cc2)s1`, the Potency is inactive: > 76.9 µM.

On to `CCOC(=O)CNC(=O)CSc1nnc(-c2ccccc2)n1Cc1ccco1`, for which the Potency was inactive: > 76.9 µM.

Turning to `Brc1ccc2[nH]ncc2c1`, the Potency is inactive: > 76.9 µM.

`[O-]/[N+](=C\c1ccccc1)[C@@H]1CCCC[C@@H]1/[N+]([O-])=C/c1ccccc1`: the Potency is inactive: > 76.9 µM.

With `O=S(=O)(c1cc(Cl)ccc1Cl)N1CCCCC1`, the Potency was inactive: > 76.9 µM.

`Nc1nonc1-c1nc2ccccc2n1CC(=O)NC1CCCC1`: the Potency was inactive: > 76.9 µM.

As for `O=C1CCCC2=C1C(c1cccs1)n1nc(SCc3ccccc3)nc1N2` (configuration not stated), the Potency is inactive: > 76.9 µM.

Regarding `CCOC(=O)C1CCCN(c2nnnn2-c2ccccc2)C1` (configuration not stated), the Potency was inactive: > 76.9 µM.

`O=C(Nc1ccc(Oc2ccccc2)cc1)C1CCN(c2ncccn2)CC1`: the Potency was inactive: > 76.9 µM.

Consider `Cc1ccccc1NC(=O)CC1SCCNC1=O` (configuration not stated), for which the Potency was inactive: > 76.9 µM.

Consider `COc1ccc(-n2c(SCC(=O)Nc3cc(C)on3)nc3ccc(O)cc3c2=O)cc1OC`, for which the Potency was inactive: > 76.9 µM.

With `COc1ccc(Cl)cc1S(=O)(=O)N1CCN(C(=O)c2ccco2)CC1`, the Potency was inactive: > 76.9 µM.

In the case of `Cc1c(C(=O)c2no[n+]([O-])c2C(=O)c2cnn(C)c2C)cnn1C`, the Potency was inactive: > 76.9 µM.

Take `Clc1ccc(-c2nnc(-c3ccccc3)o2)c(Cl)c1`: the Potency is inactive: > 76.9 µM.

For the compound `CCS(=O)(=O)N1CCCC(C(=O)NCC2CCCO2)C1` (configuration not stated), the Potency is inactive: > 76.9 µM.

As to `Cc1c(NC(=O)COC(=O)C2CC3C=CC2C3)c(=O)n(-c2ccccc2)n1C` (configuration not stated), the Potency is inactive: > 76.9 µM.

For the compound `CCCS(=O)(=O)N1CCC(C(=O)N2CCN(Cc3ccccc3)CC2)CC1`, the Potency was inactive: > 76.9 µM.

`COc1cccc(OC)c1C(=O)Nc1ccc(CN2CCOCC2)cc1`: the Potency was inactive: > 76.9 µM.

In the case of `CC(C)OC(=O)c1c(N)sc2c1CCCC2`, the Potency is inactive: > 76.9 µM.

On to `COc1ccc(S(=O)(=O)N(C)CC(=O)NCCC2=CCCCC2)cc1`, for which the Potency was inactive: > 76.9 µM.

In the case of `CCSc1ncc(Cl)c(C(=O)Nc2ccc(S(=O)(=O)Nc3onc(C)c3C)cc2)n1`, the Potency was inactive: > 76.9 µM.

With `O=C(Nc1c(F)cc(F)cc1Br)c1cccnc1`, the Potency is inactive: > 76.9 µM.

As for `CNC(=O)N(c1ccccc1)c1ccccc1`, the Potency was inactive: > 76.9 µM.

Consider `COc1cccc(-n2ccnc2SCC(=O)N2CCc3ccccc32)c1`, for which the Potency was inactive: > 76.9 µM.

In the case of `COc1cc(COCC(O)CN2CCOCC2)cc(OC)c1OC` (configuration not stated), the Potency is inactive: > 76.9 µM.

For the compound `Cn1c(=O)c(=O)n(C)c2cc(S(=O)(=O)Nc3ccc4c(c3)OCCO4)ccc21`, the Potency is inactive: > 76.9 µM.

Consider `CC(C)(C)NC(=O)CSc1nnc(C2CC2)n1Cc1ccccc1`, for which the Potency is inactive: > 76.9 µM.

As for `COC(=O)CN(C(=O)CSc1nnc(-c2cccc(OC)c2)o1)c1ccc(OC)cc1`, the Potency was inactive: > 76.9 µM.

Consider `CC(=O)NC1(c2cccc(F)c2)CCN(CC(=O)NC2CCCCC2)CC1`, for which the Potency is inactive: > 76.9 µM.

Consider `CCCn1c(SCC(=O)Nc2ccccc2C(=O)OC)nc2c1c(=O)n(C)c(=O)n2C`, for which the Potency was inactive: > 76.9 µM.

As to `N#Cc1cc(C(=O)c2cc(Br)ccc2O)cn(C2CC2)c1=O`, the Potency was inactive: > 76.9 µM.

Consider `Cc1cc(C(F)F)n2nc(C(=O)Nc3ccc(S(=O)(=O)N4CCCC4)cc3)nc2n1`, for which the Potency was inactive: > 76.9 µM.

Consider `O=C(C(c1ccccc1)c1ccccc1)N1CCN(CC(O)COc2ccccc2)CC1` (configuration not stated), for which the Potency was inactive: > 76.9 µM.

Turning to `CCCN1CCN(c2nc3c([nH]2)c(=N)ncn3CC(O)CO)CC1` (configuration not stated), the Potency was inactive: > 76.9 µM.

On to `Nc1nonc1C(=O)NC(c1ccccc1)c1ccccc1`, for which the Potency is inactive: > 76.9 µM.

With `CCOc1cc(C(=O)O)cc(Cl)c1OCC#N`, the Potency is inactive: > 76.9 µM.

With `CC1CN(C(=O)CN2C(=O)NC3(CCCCCCC3)C2=O)CC(C)O1` (configuration not stated), the Potency was inactive: > 76.9 µM.

`COC(=O)c1c(C(=O)OC)c(C)n(Cc2cccnc2)c1C`: the Potency is inactive: > 76.9 µM.

Turning to `CCCn1nnc(NC(=O)C(C)Oc2ccc(Cl)cc2Cl)n1` (configuration not stated), the Potency was inactive: > 76.9 µM.

`Oc1ccc(Oc2ncc(Cl)cc2Cl)cc1`: the Potency was inactive: > 76.9 µM.

With `CCOC(=O)c1cn(CC(=O)Nc2ccccc2C(=O)OCC)nn1`, the Potency is inactive: > 76.9 µM.

`COc1ccc(NC(=O)C2CCCN2C(=O)NC2CCCCC2)cc1OC` (configuration not stated): the Potency is inactive: > 76.9 µM.

As to `CCOC(=O)c1c(N)sc(C(=O)N(C)C)c1C`, the Potency was inactive: > 76.9 µM.

`COc1ccc(NC(=O)c2oc3ccccc3c2NC(=O)c2ccc3c(c2)OCO3)cc1`: the Potency is inactive: > 76.9 µM.

`CCC(=O)Nc1nc(C)c(C(=O)N2CCCCC2)s1`: the Potency was inactive: > 76.9 µM.

With `N#CC1=C(N)OC2=C(C(=O)CCC2)C1c1ccc(OC(=O)N2CCOCC2)cc1` (configuration not stated), the Potency was inactive: > 76.9 µM.

`CCNC(=O)c1ccccc1-c1nc(-c2ccccc2Cl)no1`: the Potency is inactive: > 76.9 µM.

In the case of `O=C(CSc1ncn[nH]1)Nc1ccc(Br)cc1F`, the Potency was inactive: > 76.9 µM.

In the case of `O=c1[nH]c2ccccc2n1C1=CCCC1`, the Potency is inactive: > 76.9 µM.

Regarding `O=C1OCCN1CCN(CN1C(=O)CCC1=O)CN1C(=O)CCC1=O`, the Potency is inactive: > 76.9 µM.

In the case of `CCCCN(CCCC)C(=O)CCS(=O)(=O)c1ccc2c(c1)n(C)c(=O)c(=O)n2C`, the Potency was inactive: > 76.9 µM.

As to `CC(C)N1C(=S)SC2CS(=O)(=O)C=C21` (configuration not stated), the Potency was inactive: > 76.9 µM.

Consider `COc1ccc(Cc2nnc(NC(=O)c3ccco3)s2)cc1OC`, for which the Potency is inactive: > 76.9 µM.

Consider `COc1ccc(CCNC(=O)C(C)OC(=O)c2ccco2)cc1OC` (configuration not stated), for which the Potency is inactive: > 76.9 µM.

In the case of `Cc1cnn(Cc2ccccc2)c1N`, the Potency is inactive: > 76.9 µM.

On to `CC(c1ccccc1)n1cc(C(=O)NCc2ccncc2)nn1` (configuration not stated), for which the Potency is inactive: > 76.9 µM.

With `COCCNC(=O)C(C)OC(=O)c1cc2occc2n1C` (configuration not stated), the Potency was inactive: > 76.9 µM.

As to `O=C(COc1nncc2ccccc12)NCCC1=CCCCC1`, the Potency is inactive: > 76.9 µM.

In the case of `C=CCn1cnc2c(c1=O)c1nc3ccccc3nc1n2/N=C/c1cccc(OC)c1OC`, the Potency is active: 6.6 µM.

As for `COc1ccc2[nH]c(=O)c(CN(CC3CCCO3)C(=O)Nc3ccccc3OC)cc2c1` (configuration not stated), the Potency was inactive: > 76.9 µM.

`O=C(NCc1ccco1)c1cccc(NC(=O)c2ccccc2)c1`: the Potency was inactive: > 76.9 µM.

Take `Cc1ccc2cc(CN(Cc3ccc(F)cc3)Cc3nnnn3C3CCCC3)c(=O)[nH]c2c1`: the Potency is inactive: > 76.9 µM.

For `O=C(NCc1cccs1)C1CCCN(S(=O)(=O)c2ccc(Br)s2)C1` (configuration not stated), the Potency is inactive: > 76.9 µM.

As to `CCN1CCN(Cc2cc(=O)oc3cc(C)cc(C)c23)CC1`, the Potency entry was “inactive”.

As for `COC(=O)Cc1c(C)nc2nc(-c3ccc(OC)cc3)[nH]n2c1=O`, the Potency is inactive: > 76.9 µM.

For `O=C1OC(N2CCN(c3ccccn3)CC2)c2ccccc21` (configuration not stated), the Potency was inactive: > 76.9 µM.

As for `C=CCSC1=C(C#N)C(c2ccccc2OC)CC(=O)N1` (configuration not stated), the Potency is inactive: > 76.9 µM.

Take `CCOc1ccc(C(C)=O)cc1COC(=O)C1=COCCO1`: the Potency is inactive: > 76.9 µM.
